Data published in publication PMC12040169 (PLOS Biology, 2025).
This is one part of the list.

Tested on: T1, C. trachomatis L2/434/Bu expressing GFP (CTL2-GFP)
T1 construct: L2/434/Bu GFP intracellular growth in HeLa cells
Parameters: species or system HeLa; C. trachomatis total inclusion area by high-content imaging, normalised to DMSO
Conditions: total inclusion area; 28.5 h, 10 µM; inhibitor
Outline: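 Post-fluorescence-read fixation, DNA staining with Hoechst and high-content imaging; GFP inclusion area and number per well, and nuclei counts, used as proxies for bacterial growth and host viability.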

Structure (SMILES) | % of control remaining
COc1ccc(C(F)(F)F)cc1N [CBK038366] | 60.543
CC1Cc2ccccc2N1C(=O)Cn1c(CCCO)nc2ccccc21 (stereo not shown) [CBK297548] | 104.196
COc1cc(-c2cn3ccnc3c(N[C@H](CO)C(C)C)n2)cc(OC)c1OC [CBK066220] | 106.011
Cc1n[nH]c(C)c1CC(=O)NC(Cc1ccsc1)c1ccccn1 (stereo not shown) [CBK285271] | 134.779
O=C(O)c1cccc(NS(=O)(=O)c2cccc(Cl)c2Cl)c1 [CBK155686] | 83.0495
COc1cc(S(=O)(=O)N2CCN(S(=O)(=O)c3cccc([N+](=O)[O-])c3)CC2)ccc1Cl [CBK266285] | 98.6535
CN(C)Cc1c(O)ccc2c(=O)c(Oc3ccc(-c4ccccc4)cc3)c(C(F)(F)F)oc12 [CBK264519] | 112.257
Cc1cc2cc(C(=O)N3CCC(c4c(C(=O)NC(C)C)sc5ccccc45)C3)ccc2o1 (stereo not shown) [CBK285873] | 24.2608
Cc1nc(SCCC(=O)Nc2ccccc2C#N)nc2cc3c(cc12)CCC3 [CBK268812] | 107.158
COc1ccc(C(=O)Nc2nc3c(OC)ccc(C)c3s2)cc1 [CBK287615] | 78.1267
O=S(=O)(Nc1nc(-c2sccc2Cl)cs1)c1cc(Br)c(Cl)s1 [CBK200030] | 101.917
CN1C[C@H]2N(C)C(=O)c3ccccc3C(=O)[C@@]2(C)C1 [CBK283482] | 118.501
O=C(O)c1cccc(-n2ncc(-c3ccsc3)n2)c1 [CBK112859] | 102.611
COCCn1c(=O)n(Cc2ccccc2F)c2cccnc21 [CBK283965] | 106.837
COCc1ccc(C(=O)N2CCC(c3cc4cnccc4[nH]3)CC2)o1 [CBK283073] | 102.827
Cc1ccc(C)c(NC(=O)N[C@@H](CC(C)C)C(=O)O)c1 [CBK286678] | 76.7825
O=C(CSCC(=O)Nc1ccc2ccccc2c1)NCC1CCCO1 (stereo not shown) [CBK058183] | 70.9214
O=C(/C=N/O)Nc1cc(C(F)(F)F)ccc1Cl [CBK288405] | 61.9704
CCCC1C2C=CC(C2)C1/C=N/O (stereo not shown) [CBK009671] | 95.3269
Cc1ccc(C(=O)COC(=O)CCN2C(=O)C3C4CCC(C4)C3C2=O)cc1[N+](=O)[O-] (stereo not shown) [CBK264096] | 103.261

Structure (SMILES) | % of control remaining
Cn1c(O)c(CCNc2cc([C@H]3C[C@@H](O)C3)nc(N)n2)cnc1=O [CBK306956] | 40.8859
CC1=NN(c2ccc(S(N)(=O)=O)cc2)C(=O)/C1=C\c1ccc(-c2ccc(S(N)(=O)=O)cc2)o1 [CBK263476] | 95.4513
O=C(O)CC1SC(Nc2ccccc2F)=NC1=O (stereo not shown) [CBK059096] | 78.918
CCNc1cncc(-c2ccc(C(N)=O)cc2)n1 [CBK065414] | 95.1386
Nc1ccc2ccc(Cl)nc2n1 [CBK039198] | 3.9745
O=C(NCCN1CCC(O)(c2ccc(F)cc2)CC1)c1cccs1 [CBK283163] | 98.5657
COCCCNCC#CCOc1ccccc1OC [CBK267419G] | 92.705
O=C(O)C1C2C=CC(O2)C1C(=O)NCC1CCCO1 (stereo not shown) [CBK286917] | 82.8003
Cc1ccc([N+](=O)[O-])cc1NC(=O)CN(Cc1ccc(Cl)cc1)S(C)(=O)=O [CBK267981] | 65.7807
COc1cc(C#N)ccc1Oc1ccc([N+](=O)[O-])cc1C(F)(F)F [CBK002544] | 83.6713
CCC1CCCCN1C(=O)c1c(Cl)cccc1Cl (stereo not shown) [CBK081303] | 95.887
COc1ccc(C(O)CNC(C)C)c2c(C)c(C)oc12 (stereo not shown) [CBK011885C] | 79.3355
CC(SCC(=O)Nc1ccc(F)cc1)c1nc2ccccc2c(=O)[nH]1 (stereo not shown) [CBK269200] | 75.5366
CCCC(=O)c1ccc(S(=O)(=O)N2CCCN(Cc3c[nH]nc3-c3ccccc3)CC2)cc1 [CBK062916] | 49.3429
COc1ccc(CC(=O)N2CCCC(c3cc4ncccc4[nH]3)C2)cc1 (stereo not shown) [CBK283418] | 103.576
CCNc1cc(N2CCN(C)CC2)ccc1NS(=O)(=O)c1ccc(F)cc1F [CBK001496C] | 91.2982
Cc1ccc(-c2n[nH]c(=S)n2CCC(=O)N2CCC(c3c[nH]c4ccccc34)CC2)cc1 [CBK296739] | 84.8294
O=C1/C(=C/c2c(NCCc3ccccc3)nc3ccccn3c2=O)SC(=S)N1Cc1ccco1 [CBK264674] | 111.399
COc1ccc([N+](=O)[O-])cc1NC(=O)CSCc1ccc(Br)cc1 [CBK268272] | 111.374
N[C@@H]1CCCN(C(=O)C2CC2)[C@H]1c1ccccc1F [CBK281563] | 76.1158
